Experimental data: the BET-seq Pho4 binding data (Le et al. 2018)
The list shows a part of the results. The energies were worked out here from pooled read counts, against the library average; single values are noisy.

What follows are sequences tested against T1, Pho4 (S. cerevisiae) (UniProt P07270) (assay: relative binding free energy (BET-seq); higher = weaker binding). Conditions: reference: library average.
T1 sequence: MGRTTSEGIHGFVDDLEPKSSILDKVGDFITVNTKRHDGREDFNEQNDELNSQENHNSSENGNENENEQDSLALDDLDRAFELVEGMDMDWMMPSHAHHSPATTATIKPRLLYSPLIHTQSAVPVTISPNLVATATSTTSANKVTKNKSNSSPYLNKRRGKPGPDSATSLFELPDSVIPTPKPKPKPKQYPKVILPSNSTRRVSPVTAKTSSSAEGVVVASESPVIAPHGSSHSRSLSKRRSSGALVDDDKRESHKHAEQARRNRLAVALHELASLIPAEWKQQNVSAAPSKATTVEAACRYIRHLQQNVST

| Sequence | relative binding free energy |
| --- | --- |
| TTGGTCACGTGCTTAA | -0.05 kcal/mol |
| TCAAGCACGTGTTGGA | -0.07 kcal/mol |
| TTAGGCACGTGTTCTT | -0.05 kcal/mol |
| GGGTGCACGTGTATGT | 0.04 kcal/mol |
| TTGTGCACGTGCTATA | -0.09 kcal/mol |
| GGAAGCACGTGTACGT | -0.05 kcal/mol |
| GTTATCACGTGTTTCG | 0.16 kcal/mol |
| ATGTTCACGTGTTACT | 0.24 kcal/mol |
| AGTGTCACGTGGGAAA | -0.01 kcal/mol |
| TTAGACACGTGGGCAT | 0.02 kcal/mol |
| TGTGACACGTGCGGCG | 0 kcal/mol |
| GAAGGCACGTGCTTGG | -0.05 kcal/mol |
| CGGGCCACGTGATGGT | -0.01 kcal/mol |
| TAGGACACGTGCGTGG | -0.12 kcal/mol |
| ATAGTCACGTGGTCTG | 0 kcal/mol |
| CTTCTCACGTGTGAGT | 0.21 kcal/mol |
| AGTGACACGTGGGGAG | -0.13 kcal/mol |
| TAATTCACGTGGTTTC | 0.26 kcal/mol |
| TGGTGCACGTGATAGA | 0.05 kcal/mol |
| GGGATCACGTGGGCCT | 0.14 kcal/mol |
| GTAGGCACGTGATCAT | 0.06 kcal/mol |
| TTACTCACGTGTGGAT | 0.21 kcal/mol |
| TTTTGCACGTGAGCTC | 0.23 kcal/mol |

| Sequence | relative binding free energy |
| --- | --- |
| AGACGCACGTGCGGGT | -0.3 kcal/mol |
| GGCTGCACGTGGGATT | -0.05 kcal/mol |
| AGTTTCACGTGTGCGT | 0.29 kcal/mol |
| TCCGTCACGTGTGTTG | 0.16 kcal/mol |
| TACTGCACGTGCGGGG | 0 kcal/mol |
| TAGTTCACGTGACAGA | 0.57 kcal/mol |
| AATTGCACGTGGATGC | 0.01 kcal/mol |
| TTTGCCACGTGGGTAA | -0.26 kcal/mol |
| GGGCGCACGTGGTCAG | -0.17 kcal/mol |
| AGCGGCACGTGCTTAG | 0.01 kcal/mol |
| GTCGCCACGTGGAGTG | -0.02 kcal/mol |
| GTGCACACGTGGGGAC | 0.08 kcal/mol |
| TCTTTCACGTGAATGT | 0.38 kcal/mol |
| GCAGGCACGTGGTATG | -0.2 kcal/mol |
| TGTACCACGTGTTGTC | 0.05 kcal/mol |
| TATATCACGTGAAGAT | 0.35 kcal/mol |
| GAAGGCACGTGTGTGT | -0.04 kcal/mol |
| TGGTGCACGTGTTCGA | 0.06 kcal/mol |
| ATGGGCACGTGCGTAA | -0.11 kcal/mol |
| TAGCTCACGTGGGAGA | 0.19 kcal/mol |
| ATGTTCACGTGCCGTT | 0.2 kcal/mol |
| TGCCGCACGTGCGGGT | -0.27 kcal/mol |
| GATATCACGTGGTGAA | 0.27 kcal/mol |

| Sequence | relative binding free energy |
| --- | --- |
| TCGTACACGTGGTTAG | 0.18 kcal/mol |
| TGGGTCACGTGGGGTC | 0.09 kcal/mol |
| GCATGCACGTGGGGTC | -0.19 kcal/mol |
| GTGATCACGTGGAGTA | 0.06 kcal/mol |
| TTTGGCACGTGAAATT | 0.34 kcal/mol |
| TGATGCACGTGGCGAG | -0.01 kcal/mol |
| AGGGTCACGTGGTTCT | 0.14 kcal/mol |
| TGTACCACGTGGGCTG | -0.24 kcal/mol |
| GTCTGCACGTGTTAGG | 0.1 kcal/mol |
| AAAGACACGTGGTTAT | 0.07 kcal/mol |
| TTCGTCACGTGACTGT | 0.19 kcal/mol |
| GTGGTCACGTGAGGCG | 0.35 kcal/mol |
| AGGATCACGTGGGCTG | 0.04 kcal/mol |
| TTATTCACGTGGCGGC | 0.26 kcal/mol |
| TACGGCACGTGGAGTA | -0.09 kcal/mol |
| GGTTTCACGTGGACCG | 0.28 kcal/mol |
| TGAAGCACGTGAGGCG | 0.18 kcal/mol |
| GTGGCCACGTGACGTG | -0.03 kcal/mol |
| GTGTGCACGTGATGAG | 0.15 kcal/mol |
| TAGAACACGTGTATGG | -0.07 kcal/mol |
| ATAGGCACGTGAGTGG | 0.13 kcal/mol |
| TCGATCACGTGAATGT | 0.52 kcal/mol |
| GGCAACACGTGTTTTT | 0.12 kcal/mol |

| Sequence | relative binding free energy |
| --- | --- |
| TGGGACACGTGTGTGG | 0.04 kcal/mol |
| AGCGGCACGTGTACGT | 0.01 kcal/mol |
| GACGTCACGTGAGGTG | 0.11 kcal/mol |
| GCTATCACGTGAGTGG | 0.49 kcal/mol |
| CGTTACACGTGGTTAG | 0.01 kcal/mol |
| GTGGGCACGTGTACTG | -0.19 kcal/mol |
| TGTGCCACGTGGTGGG | -0.23 kcal/mol |
| CGCGGCACGTGGGTGT | -0.16 kcal/mol |
| AAGTTCACGTGTTTGA | 0.14 kcal/mol |
| GGAGGCACGTGGTACT | -0.16 kcal/mol |
| GGTTACACGTGCTGGA | 0.22 kcal/mol |
| CAATGCACGTGAGGTT | 0.26 kcal/mol |
| TGATCCACGTGGCGTT | 0.03 kcal/mol |
| TGTTACACGTGTAAAT | 0.33 kcal/mol |
| GAGTACACGTGTTTGG | 0.12 kcal/mol |
| GCGGGCACGTGACTGG | 0.12 kcal/mol |
| GTTTTCACGTGGGGGT | 0.27 kcal/mol |
| GTAAACACGTGTGTGT | -0.01 kcal/mol |
| ATTCGCACGTGCGTGG | -0.26 kcal/mol |
| AGAGGCACGTGGAGCG | -0.06 kcal/mol |
| GTAGTCACGTGAATAG | 0.26 kcal/mol |
| TGATACACGTGTATAA | 0.12 kcal/mol |
| ACGGTCACGTGTAGGT | 0.17 kcal/mol |

| Sequence | relative binding free energy |
| --- | --- |
| GAAAACACGTGATTGG | 0.28 kcal/mol |
| GCTAGCACGTGGGAGG | -0.11 kcal/mol |
| TGCTCCACGTGGGGTA | -0.19 kcal/mol |
| TCTCGCACGTGGGTTA | -0.22 kcal/mol |
| TTCGGCACGTGAGGAT | 0.2 kcal/mol |
| GCTTACACGTGTGGGA | 0.27 kcal/mol |
| TAGAGCACGTGTGAAG | 0.04 kcal/mol |
| TGCGGCACGTGAGAGA | 0.18 kcal/mol |
| TGTCTCACGTGTAGCG | 0.28 kcal/mol |
| GTGGGCACGTGATTAG | 0.02 kcal/mol |
| TGCTACACGTGGGGGT | -0.1 kcal/mol |
| ATGTCCACGTGAGGGC | 0.21 kcal/mol |
| ATGGTCACGTGGGCAG | -0.12 kcal/mol |
| GTATGCACGTGGAGTT | 0.05 kcal/mol |
| TCATACACGTGTAGGT | 0.02 kcal/mol |
| AGGAGCACGTGATAAG | 0.05 kcal/mol |
| GGAGTCACGTGTGGTT | 0.19 kcal/mol |
| CTGTTCACGTGTTGGG | 0.26 kcal/mol |
| ATATTCACGTGATTGT | 0.32 kcal/mol |
| TAGTGCACGTGCGCGG | -0.13 kcal/mol |
| ATGGGCACGTGGGCGC | -0.37 kcal/mol |
| AGAGACACGTGGTATA | -0.03 kcal/mol |
| TGGTACACGTGATAGT | 0.17 kcal/mol |
